Test results as given in the supplement of paper PMC11417369.
The list shows a part of the results.

test system: PfAP2-HC AP2 domain (GST-tagged); assay: gcPBM binding intensity (ln(normalized median fluorescence intensity)); higher = stronger DNA binding
Method in brief: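 For binding intensity, the highest Masliner-normalised natural-log median intensity across replicate spots of either probe orientation was taken. Protein bound to the array was stained with Alexa488 anti-GST antibody and scanned at 488 nm. The protein, GST-tagged P. falciparum DNA-binding domains from E. coli at about 25 μg on average, had been applied for 1 h to an Agilent 4 × 180k array of primer-extended double-stranded 36-bp intergenic genomic probes and negative controls.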

Row | Sequence | gcPBM binding intensity (ln)
1 | GATCTAAAAACAAGGTGTACAAGAAAAAAAAAAAAA [XGTACX_site7577] | 9.58
2 | ACAAAAGGGGAATACACACACATATATATATATATA [CACACA_site2215] | 10.1
3 | TATGTATATACATAAACATGCAAAAACAATATCTTA [TGCATGCA_site950] | 9.66
4 | TATTTATTTATTTAATGTACAAAAGAACAAGAATTT [XGTACX_site2248] | 9.14
5 | TTCTTCTGTTTTATTACACACCATTTTGTGTATACA [CACACA_site7059] | 10
6 | TCTTAATCGTATTATTACTATAATTATATAATATTT [CACACA_negctrl_site1594] | 9.68
7 | TTCTTTTATGATAATTGTACCCTTTTTAAAAAGAAA [XGTACX_site7815] | 9.26
8 | ATAATGAAAAGAAAGGGTACAAAAAAAAAAAAAAAT [XGTACX_site3350] | 10.1
9 | AACTGATTATTTTTTTGTACATATATAATAATATAT [XGTACX_site5953] | 9.78
10 | CATAAATAATATATTTGTACGAATAAAATTTGTTCA [XGTACX_site3445] | 9.48
11 | TAAAACAATATAAAATGTACAGAATTTTTTTTTCTT [XGTACX_site6820] | 9.52
12 | TTTTTTTTCAATGGCACACATTTTAGATTTATGCTT [CACACA_site4735] | 9.77
13 | ATAAAATATCAATACCGTACACAAGCAGGTAAAATA [XGTACX_site3719] | 9.92
14 | CTTTTTTGTAATAACACACACACAAACAGAAAAAAT [CACACA_site2075] | 10.1
15 | ATTAATATTTAGACTTGTACATATATAATATATGTC [XGTACX_site3766] | 9.6
16 | AAGAAAAAGATGCGCATACACACAGATGAATAACAA [CACACA_site1627] | 10.2
17 | TTTCTTTTTTAAATTAAAATTTTTTTTTTTTTCGGT [TGCATGCA_negctrl_site52] | 9.36
18 | TTATTTCAAAGTTGTTGTACAAAAATATATTTATAA [XGTACX_site5226] | 9.65
19 | AAAAAAATAATGTACACACACATATATGTTTATATA [CACACA_site6234] | 10.1

Row | Sequence | gcPBM binding intensity (ln)
20 | AATTAAAAAGTTTTTAATGTTTTTAATTTTTTCCAC [XGTACX_negctrl_site423] | 9.4
21 | AAAGGTGTATTTAATACACACGTGTCATTAAAATTG [CACACA_site4508] | 9.71
22 | TATATAAATTATGTGAGTACATAATTTAGAAGGAAC [XGTACX_site2807] | 9.9
23 | AATATAAATATAAATTGTACTTAAAAATTTCACGCA [XGTACX_site5234] | 9.58
24 | TTAAAAAACTATAATACACACCAAAAATATGCACAT [CACACA_site7079] | 10.2
25 | TCCTTTTGAACCCTTTTTCTCACAAGACCTTTATAT [TGCATGCA_negctrl_site413] | 9.64
26 | TTTCGTTGTGTATTTTGTACATATTTTTAATTATAT [XGTACX_site6687] | 9.91
27 | TTTTTTTTTTATTCTTCACACATTTCCAATAAAAAA [CACACA_site5601] | 9.53
28 | ACCTAAAATAACTACACACACATAAAAAAAAAAAAA [CACACA_site2529] | 10.2
29 | GTTATTATATATATGTGTACTTAAAAATTTTATGTC [XGTACX_site6084] | 9.68
30 | TATAACAAAAAAAAATAAAAAATAAAACTATATATA [CACACA_negctrl_site504] | 9.6
31 | AATAAAAAAAAAATAAATTTAATAATAATAATAAAA [CACACA_negctrl_site569] | 9.51
32 | TTTATATATTTTAGGAGTACATTAAATTATACCTTA [XGTACX_site5600] | 9.42
33 | TGTATATATATTTATGCATGCTGTGTGTATTCTTTT [TGCATGCA_site74] | 10.1
34 | AAAAAAAAAAAAAAAACACACAGAAATATATATATA [CACACA_site4611] | 9.72
35 | AAAGAAGGGAAACACACACACACACCCACAAAAAAA [CACACA_site3766] | 11.4
36 | TATATAAGGAAATATTGTACTTTTATATTTATATTA [XGTACX_site3814] | 9.45
37 | ATATAAAAATATAATACACACATAAAATATATTATA [CACACA_site969] | 9.97
38 | TTTCTTTTTATATTCACACATAAATATATATATATA [CACACA_site6053] | 9.63

Row | Sequence | gcPBM binding intensity (ln)
39 | AAAAAAAAAAAACACACACACACATACCCATACATA [CACACA_site5575] | 11.3
40 | TACATTTAAAAAAAAACACACATATATATATATATA [CACACA_site2535] | 9.92
41 | ATATATTTGTATAATAGTACGTACAGGCAAAATATA [XGTACX_site7396] | 9.84
42 | TGTATGCTTACATAATGTACGGAAAAATAAAGGCAT [XGTACX_site6923] | 9.7
43 | ATATATAAATAATGTTGTACGTATTTCAAAAGTATG [XGTACX_site3363] | 9.73
44 | ATAATAATAATAAAAAGTACAAATTATTATATATAT [XGTACX_site5160] | 9.71
45 | TGCTCTCTCTTGTTGTGTACATAATACAATATATAT [XGTACX_site7427] | 10
46 | ATAATAAGAACTCAGTGTACTATCCTTTGAATTAAC [XGTACX_site8117] | 9.62
47 | AACGTCTTTTTTTTTTTTTTTCTTTTTTTTTTTATT [CACACA_negctrl_site303] | 9.86
48 | TAATTATTTTCGGTACGTACTAATGTATATATAATT [XGTACX_site3895] | 9.59
49 | TAATAATTTTTTTTTTTTTTTTACGAAAATATGATT [GTGCAC_negctrl_site323] | 9.3
50 | ACACATCAAATATAAAAAAAAAATAACTATAAATAA [CACACA_negctrl_site587] | 9.84
51 | TATAAAAGTGGACACACACACATATATATATATATA [CACACA_site4673] | 9.96
52 | TAATAAATAGGACACACACACATATTTATATATCAT [CACACA_site6771] | 11
53 | CCTTTAAGCAAAAACACACACACATATTTATTTATA [CACACA_site6294] | 10.2
54 | AATTTTTTTTTTTTGTTGCACTTTTAGAGTTTTAAT [GTGCAC_site9519] | 9.63
55 | TTGCAAAATTGTTTTATCACAAATATATACTTAATA [CACACA_negctrl_site403] | 9.36
56 | TAATTCTTGTAAAATGTGCGCAGTAGATATAGTTTT | 9.72
